Experimental data published in PubChem BioAssay AID493208 (National Center for Advancing Translational Sciences (NCATS), 2011).
Screen size: about 44,000 compounds; about 340 (0.77%) were called active. Inconclusive results (about 5%) are left out. Calls follow the shape of the dose curve; as a rule, active = well fitted inhibition curve with a large enough effect; inconclusive = small, poorly fitted or top-dose-only effect; inactive = flat fitted curve, though single readings scatter. Some of the results follow.

Assay: Acumen qHTS Assay for Inhibitors of the mTORC1 Signaling Pathway in MEF (Tsc2-/-, p53-/-) Cells: Sytravon;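 also: plate controls were DMSO for no effect and rapamycin for full effect; nearly all actives have a fitted effect of over 50% in size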
Details: phospho-rpS6 immunofluorescence/PI, 24 h; series mostly up to 38.3 µM; activity change, negative = inhibition: at the top concentration
Procedure, shortened: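 Immunofluorescence of rpS6 phosphorylation in Tsc2-/-, p53-/- MEFs after 24 h compound exposure, normalized to propidium iodide signal. Activity is expressed as % positive cells, thresholded with 7.5 nM rapamycin.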

Activity change, negative = inhibition, inactive:
Cc1ccc2nc(-c3ccc(C)c(NC(=O)CSc4ccc(Cl)cc4)c3)oc2c1 -2.1%, CCOc1ccc(N(C(=O)c2ccc(C)cc2)S(=O)(=O)c2ccc3c(c2)n(C)c(=O)n3C)cc1 4.83%, Cc1ccc2cccc(NC(=O)c3ccc(-c4cc(Cl)ccc4Cl)o3)c2n1 14.4%, Cc1ccc(Cl)cc1N1CCN(C(=O)Cn2cnc3nc4c(cc3c2=O)CCCC4)CC1 4.07%, Cc1ccc(C)n1-c1nnc(N2CCCC(C(=O)NCc3ccc(F)cc3)C2)s1 (configuration not stated) -1.84%, O=C(NCc1ccc(Cl)cc1)c1cc2ccccc2o1 2.65%, CCN(CC)C(=O)Cn1c(=O)n(CCCCCC(=O)NCc2ccccc2Cl)c(=O)c2sccc21 2.68%, COc1ccc(OC)c(NC(=O)c2ccc3c(c2)c(C)c(C)n3Cc2ccc(F)cc2)c1 -10.7%, O=C(NCc1cccc(Br)c1)c1cccn1-c1nnc(N2CCCCC2)s1 -5.23%, Cc1ccc(NC(=O)Cn2c(C)cc(C)c(C#N)c2=O)cc1F 5.97%, Cc1cc(C)c(/C=C/c2onc(C)c2S(=O)(=O)N2CCC(C(=O)N3CCN(c4ccc(Cl)cc4)CC3)CC2)c(C)c1 3.75%, Cc1ccc(C(=O)Nc2nc3n(n2)C(c2ccccc2)C=C(c2ccccc2)N3)cc1 (configuration not stated) -6.14%, CC1CCc2onc(C(=O)N3CCN(c4cccc(C(F)(F)F)c4)CC3)c2C1 (configuration not stated) 5.06%, COc1ccc(-c2nc3ccccc3s2)cc1NC(=O)c1cc2ccccc2o1 -0.562%, Cc1ccc(NC(=O)CCNS(=O)(=O)c2cccc3nsnc23)cc1 -10.1%, CN(CC(=O)Nc1ccc(F)cc1F)S(=O)(=O)c1ccc(C(=O)N2CCOCC2)s1 0%, CN1CCN(C(c2cccc(Br)c2)c2sc3nc(-c4ccco4)nn3c2O)CC1 (configuration not stated) 1.2%, CCC(=O)N1CCc2cc(Br)cc(S(=O)(=O)CCC(=O)NCCc3ccccc3Cl)c21 0.616%, CCOc1ccc(-c2nonc2NC(=O)c2ccc(C)cc2)cc1OCC 0.214%, O=C(Cc1csc2ccccc12)NCc1ccccc1F -0.675%, CCC(=O)OCCCNc1nc(-c2ccc(Cl)cc2)nc2ccccc12 -3.18%, CC(=O)N1CCCc2cc(S(=O)(=O)N3CCN(c4ccc(F)cc4)CC3)ccc21 -7.08%, CCc1cccc(-n2nnc(-c3nc(-c4cccs4)no3)c2N)c1 -8.6%, COc1ccc(NC(=O)c2noc3c2CSc2ccccc2-3)cc1Cl 2.38%, Clc1ccc2nc(-c3ccc(Br)o3)c(Nc3ccc4c(c3)OCCO4)n2c1 3.82%, COc1cccc(OC)c1C(=O)Nc1cccc(-c2nc3cc(C)cc(C)c3o2)c1 -1.92%, O=C(CSc1nc2ccsc2c(=O)n1Cc1ccccc1F)NCc1ccccc1 -9.29%, CCc1ccc(NC(=O)CN2C(=O)C(c3ccccc3)=NC23CCCCCC3)cc1 -2.68%, CCc1ccc(NC(=O)N(Cc2ccc(C)cc2)Cc2cccn2-c2nnc(N3CCCC3=O)s2)cc1 -7.96%, Cc1ccc2nc(CSc3nnc(NC(=O)COc4ccccc4)s3)cc(=O)n2c1 0%, CCOC(=O)c1c(C)c(-c2ccccc2)n(CC(=O)NCCc2ccc(C)cc2)c1C -4.26%, CCCCc1ccc(NC(=O)COc2cccc3c(=O)n(C)ccc23)cc1 -2.84%, CCOC(=O)c1ccc(NC(=O)c2cc(=O)c3cc(CC)ccc3o2)cc1 1.3%, Cc1ccc(NC(=O)N2CCC(CN3CCC(C)CC3)CC2)cc1F -2.62%, COc1ccc(-c2cc(C(F)(F)F)nc(SCC(=O)NCCc3ccc(OC)c(OC)c3)n2)cc1 -1.19%, Cc1ccc(NC(=O)C2CCCN(c3nnc(-n4c(C)ccc4C)s3)C2)cc1Cl (configuration not stated) -8.39%, COc1cccc(CNC(=O)C(NS(=O)(=O)c2ccc3nc(C)sc3c2)C(C)C)c1 (configuration not stated) -4.68%, Cc1ccc(C(CC(=O)Nc2cc(C)cc(C)c2)N2Cc3ccccc3C2=O)cc1 (configuration not stated) -8.36%, Cc1cccc(NC(=O)CSc2nnc(C)c(=O)[nH]2)c1 -1.72%, CCS(=O)(=O)NCC(c1ccco1)N1CCN(c2ccc(OC)cc2)CC1 (configuration not stated) -1.39%, CCN(CC)c1ccc(-n2nc3cc(C)c(NC(=O)c4ccccc4F)cc3n2)cc1 0.419%, Cc1ccccc1CN1c2ccccc2-c2nc(SCC(=O)NCCc3ccccc3)ncc2S1(=O)=O 8.34%, CCOc1ccc(NC(=O)c2ccc(F)c(S(=O)(=O)NCc3ccc4c(c3)OCO4)c2)cc1 -15.1%, COc1ccc(-n2c(SCc3ccccc3F)nc3c([nH]c4ccccc43)c2=O)cc1 -11.5%, O=C(NC1CC(=O)N(c2ccc(Cl)cc2)C1)c1ccc(S(=O)(=O)N2CCCC2)cc1 (configuration not stated) 1.95%, Cc1ccccc1CSc1nnc2[nH]c(=O)cc(C)n12 1.35%, O=C(Cn1cc(S(=O)(=O)Cc2ccc(F)cc2)c2ccccc21)NCc1ccccc1Cl -3.51%, Cc1oc2ncn(CC(C)C)c(=O)c2c1C(=O)NCCCN(Cc1ccccc1)C(C)C -3.67%, CCc1cccc(C)c1NC(=O)CSc1nnc(N)s1 -4.85%, COc1ccc(CCNC(=O)CS(=O)Cc2nc(-c3ccc(C)cc3)oc2C)c(OC)c1 (configuration not stated) -7.82%, COc1ccc(CCNC(=O)C(=O)NCC(c2ccco2)S(=O)(=O)c2ccccc2)cc1OC (configuration not stated) -0.558%, O=C(Cn1c(=O)nc(-c2ccccc2)c2ccccc21)NCCCc1ccccc1 -15.5%, Cc1ccccc1N1CCN(S(=O)(=O)c2nnc(NC(=O)c3ccc(Cl)cc3)s2)CC1 -4.97%, CCOc1ccccc1NS(=O)(=O)c1cnc(N)nc1 -5.37%, CCCC12CN3CC(C)(CN(C1)C3c1cn(C)c3ccccc13)C2=O (configuration not stated) 0.458%, CCc1cccc(NCc2ccccc2-c2nnc(-c3ccccc3Cl)o2)c1 3.28%, CCn1c(CN2CCOCC2)nc2cc(NC(=O)c3cc(OC)c(OC)c(OC)c3)ccc21 -2.72%, CSc1nn(Cc2ccc(Br)cc2)c(N(C(C)=O)C(C)=O)c1S(=O)(=O)c1ccccc1 0.0646%, COc1ccccc1N1CCN(C(=O)Cc2c(C(=O)O)c(C)cn2C)CC1 -5.31%, COc1ccc(-c2cc(C(=O)NCc3ccccc3)c3c(-c4ccccc4)[nH]nc3n2)cc1 7.79%, CC1CCN(C(=O)Cn2ncc3c4ccccc4n(Cc4ccc(Cl)cc4)c3c2=O)CC1 -1.13%, CCCCSCCCNC(=O)C1CCC(CNS(=O)(=O)c2ccccc2)CC1 (configuration not stated) -0.852%, CC(=O)c1ccc(NC(=O)c2cc(-c3ccc(Cl)c(Cl)c3)on2)cc1 0.944%, CCc1ccccc1NC(=O)C1CCCN(c2nnc(-n3c(C)ccc3C)s2)C1 (configuration not stated) -5.89%, CCOc1ccc(CCNC(=O)c2ccc3nc(CC)c(CC)nc3c2)cc1 0.226%, COc1ccccc1-c1cc(C(=O)Nc2cc(Cl)ccc2O)no1 -28.7%, O=C(Nc1ccc(F)cc1F)c1ccc2c(=O)n3c(nc2c1)CCCCC3 -0.167%, CCOc1ccc(OCC(=O)Nc2c(C(=O)Nc3ccc(C)cc3)oc3ccccc23)cc1 3.39%, CCOc1ccc(CNC(=O)c2cnc3sc(N4CCC(C)CC4)nn3c2=O)cc1OC -13.2%, O=S(=O)(Nc1cccc(-c2ccc(N3CCCCC3)nn2)c1)c1ccc(Cl)s1 1.7%, Fc1ccc(CNc2nc3ccc(Cl)cc3n3nnnc23)cc1 -13.1%, COc1cccc(-n2c(=O)c3sc4ccccc4c3n(CC(=O)Nc3cccc(Cl)c3)c2=O)c1 -1.15%, CCSc1ncc(Cl)c(C(=O)N2CCN(c3ccc(OC)cc3)CC2)n1 6.44%, C=Cc1ccc(Cn2c(=O)n(-c3cccc(C)c3)c(=O)c3c2c2cc(C)ccc2n3C)cc1 -6.38%, O=C(Nc1ccc2c(c1)N(C1CCCC1)C(=O)c1ccccc1S2)c1ccc(F)cc1 -5.39%, CCN(CC)CCCNC(=O)c1ccc2nc(CCc3ccccc3)oc2c1 1.33%, O=S(=O)(c1cccc(Cl)c1)c1nnn2c1nc(NC1CCCCCC1)c1sccc12 -12.4%, Cc1ccc(S(=O)(=O)c2c(C)nn(-c3ccccc3)c2OC(=O)c2ccccc2F)cc1 6.88%, CCN(CC)c1ccc(NC(=O)C2COc3ccc(OC)cc3C2)c(C)c1 (configuration not stated) -14.2%, CCN(c1ccc(Cl)cc1)S(=O)(=O)c1nnc(NC(=O)C(C)C)s1 -1.13%, CCC(=O)Oc1ccc(-c2nc3ccccc3c(=O)o2)cc1 -0.909%, Cc1ccc(-n2ncc(C(=O)N3CCN(Cc4ccccc4)CC3)c2C2CCN(C(=O)OC(C)(C)C)CC2)c(C)c1 -20.5%, CC(C)(C)OC(=O)N1CCC(c2c(C(=O)NCc3ccco3)cnn2-c2ccc(F)cc2)CC1 -0.843%, Cc1ccc(C)c(S(=O)(=O)c2nnn3c2nc(NCc2ccc4c(c2)OCO4)c2sccc23)c1 -1.98%, CN(C)c1ccc(NC(=O)Cn2c(SCc3ccccc3F)nc3cccnc32)cc1 -11.3%, COc1ccc(-c2nnc(SCC(=O)Nc3ccc(F)cc3)s2)cc1 -0.399%, O=c1c2sc3ccccc3c2n(Cc2ccccc2F)c(=O)n1CCc1ccccc1 2.7%, CN(C)c1ccc(C(CNS(=O)(=O)c2ccc(Br)cc2)N2CCOCC2)cc1 (configuration not stated) 5.56%, O=C(c1ccc2c(Cl)c3c(nc2c1)CCCC3)N1CCN(c2cccc(Cl)c2)CC1 -7.91%, CCc1ccc(-c2ccc(C(=O)Oc3ccc(Br)cc3)cc2)nc1 -12.8%, Cc1c(C)n(C)c2ccc(C(=O)NCCCN3CCCCC3)cc12 0%, COc1ccc(NC(=O)C2=C(C)Nc3nc(SCc4ccccc4)nn3C2c2cc(OC)ccc2OC)cc1 (configuration not stated) -11.7%, Cc1ccc(-c2c(C(=O)NCCc3ccc(Cl)cc3)oc(=O)c3ccccc23)cc1 5.95%, Cc1ccc(Cn2ccc(NC(=O)c3cc(-c4ccc(Cl)c(Cl)c4)on3)n2)cc1 3.49%, COCCc1nn2c(=O)cc(COC(=O)c3ccc(C(C)(C)C)cc3)nc2s1 -15.1%, Cc1ccc(S(=O)(=O)c2nc(-c3ccc(Cl)cc3)oc2N2CCCCCC2)cc1 -4.13%, CCN(CC)S(=O)(=O)c1ccc(C(=O)N=c2sc3cccc(OC)c3n2C)cc1 -6.23%
